Assay results published in PubChem BioAssay (NCATS).
Where “and” joins values, the source holds several entries; their conditions need not be identical. Identical values can stand only once. The shares of active, inactive and inconclusive entries below differ from those in the screen. For some of these results: Where the call is inconclusive, the potency comes from a doubtful curve fit. For some of these results: A note “side channel” means that the fit belongs to a control or component signal, not to the main read-out. Calls of active or inactive are those of the source. Unless noted, the call rests on the fitted dose curve.

Legend:
[1] = molecular target: Estrogen receptor (Homo sapiens) (UniProt P03372); experiment: qHTS assay for small molecule agonists of estrogen receptor alpha signaling (AID 588514); conditions: ER-alpha-UAS-bla HEK293, beta-lactamase ratio, 18 h; activation: at 76.8 µM (top of the series), percent of full estradiol response, vehicle zero unless noted;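 further: 0% = vehicle only and 100% = reference agonist; nearly all actives have a fitted effect of over 70% in size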
Sequence of UniProt P03372 (P03372 whole entry, looked up): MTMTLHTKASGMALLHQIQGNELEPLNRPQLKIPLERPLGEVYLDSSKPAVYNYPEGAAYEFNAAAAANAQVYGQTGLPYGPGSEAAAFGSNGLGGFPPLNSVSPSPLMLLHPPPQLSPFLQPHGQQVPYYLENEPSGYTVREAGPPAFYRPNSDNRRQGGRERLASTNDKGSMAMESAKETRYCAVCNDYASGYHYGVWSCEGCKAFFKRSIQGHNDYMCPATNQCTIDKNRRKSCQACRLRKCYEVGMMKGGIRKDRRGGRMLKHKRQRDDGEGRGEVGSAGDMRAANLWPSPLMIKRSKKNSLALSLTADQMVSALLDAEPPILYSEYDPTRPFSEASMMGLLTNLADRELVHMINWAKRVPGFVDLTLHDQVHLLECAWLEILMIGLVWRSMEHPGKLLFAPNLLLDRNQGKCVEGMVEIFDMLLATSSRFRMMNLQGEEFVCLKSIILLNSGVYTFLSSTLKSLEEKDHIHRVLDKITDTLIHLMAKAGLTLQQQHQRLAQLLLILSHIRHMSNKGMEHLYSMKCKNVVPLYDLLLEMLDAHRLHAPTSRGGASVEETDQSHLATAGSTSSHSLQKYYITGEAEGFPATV
Method in brief: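 Reporter-gene assay. […] controls beta-lactamase in HEK 293 GripTite cells; after 18 hrs with compound, CCF4 substrate is added for 2 hrs and fluorescence is read.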

[2] = molecular target: Retinoic acid receptor RXR-alpha (Homo sapiens) (UniProt P19793); experiment: qHTS assay for small molecule agonists of retinoid X receptor alpha signaling (AID 588544); conditions: HEK293T RXRa-UAS-bla, beta-lactamase reporter, 18 h; activation: at 76.7 µM (top of the series); further: potency means the concentration at half of the fitted maximal effect;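 on activation: 0% = DMSO basal wells and 100% = reference agonist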
Sequence of UniProt P19793 (P19793 whole entry, looked up): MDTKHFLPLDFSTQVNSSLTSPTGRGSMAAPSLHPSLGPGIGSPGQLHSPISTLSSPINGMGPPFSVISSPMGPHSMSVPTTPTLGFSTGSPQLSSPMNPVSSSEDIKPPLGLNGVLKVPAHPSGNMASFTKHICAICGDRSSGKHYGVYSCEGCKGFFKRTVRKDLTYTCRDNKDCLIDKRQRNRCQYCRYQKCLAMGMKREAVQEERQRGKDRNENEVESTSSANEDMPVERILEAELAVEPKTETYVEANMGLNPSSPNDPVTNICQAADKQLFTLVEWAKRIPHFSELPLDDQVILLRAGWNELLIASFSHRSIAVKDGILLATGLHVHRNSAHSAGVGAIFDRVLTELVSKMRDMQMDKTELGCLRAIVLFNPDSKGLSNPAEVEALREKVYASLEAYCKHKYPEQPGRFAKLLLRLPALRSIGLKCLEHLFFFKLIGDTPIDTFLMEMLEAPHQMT

[3] = MultiTox-Fluor Cytotoxicity Assay - LYMP1-002 - Dead Cells (AID 960; active means well fitted curve in the direction sought with a large enough effect; inconclusive means small, poorly fitted or top-dose-only effect, or another doubt; inactive means no such curve, though single readings can be large; an effect the other way counts as inactive or inconclusive;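 further: 0% = DMSO and 100% = tetraoctylammonium bromide; nearly all actives have a fitted effect of over 60% in size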); conditions: LYMP1-002 lymphoblastoid cells, dead-cell protease fluorescence; cytotoxicity (dead cells): at 46.1 µM (top of the series)
Method in brief: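 Acute cytotoxicity in a human lymphoblastoid line is scored as rising dead-cell protease signal after 16 hr exposure at 37 C, measured fluorometrically (485/520).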

[4] = Cell Viability - LYMP2-013 (AID 970; active means well fitted curve in the direction sought with a large enough effect; inconclusive means small, poorly fitted or top-dose-only effect, or another doubt; inactive means no such curve, though single readings can be large; an effect the other way counts as inactive or inconclusive;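 further: cells exposed to compound for 24 h at 37 °C; 0% = DMSO only and full inhibition = tetraoctylammonium bromide control; nearly all actives have a fitted effect of over 55% in size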)
Method in brief: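 Acute toxicity was measured in human lymphoblastoid cells (2500/well) exposed to compound titrations for 24 hr, with ATP luminescence (CellTiter-Glo) as read-out and AC50 fitted by Hill equation.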

[5] = Cell Viability - LYMP2-010 (AID 981; active means well fitted curve in the direction sought with a large enough effect; inconclusive means small, poorly fitted or top-dose-only effect, or another doubt; inactive means no such curve, though single readings can be large; an effect the other way counts as inactive or inconclusive;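 further: cells exposed to compound for 24 hours at 37 °C; on the % scale 0 is the no-effect control and ±100 the full control effect; nearly all actives have a fitted effect of over 55% in size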)
Method in brief: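 Acute toxicity is scored as a concentration-dependent loss of cellular ATP in human lymphoblastoid cells after 24 hr compound exposure in complete medium. Tetraoctylammonium bromide is the positive control.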

[6] = molecular target: Peroxisome proliferator-activated receptor gamma (Homo sapiens) (UniProt P37231); experiment: qHTS assay for small molecule antagonists of peroxisome proliferator-activated receptor gamma signaling (AID 588537; active means well fitted inhibition curve with a large enough effect in the signal ratio, with a control signal flat, not every such curve was filed as active; inconclusive means small, poorly fitted or top-dose-only effect, or effect the other way, or a change in a side signal; the % refers to the signal ratio;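 further: reporter cells co-stimulated with 50 nM rosiglitazone agonist during compound treatment; % of control where 0% means no effect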); conditions: HEK293 PPARg-UAS-bla, beta-lactamase ratio, antagonist mode; activity, negative = inhibition: at 76.8 µM (top of the series) unless noted
Method in brief: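 Step one: plate 3000 HEK293 UAS-bla cells per well in medium with 1% stripped serum and hold 6-6.5 h at 37 C. Step two: add compound and 50 nM agonist for 16 h. Step three: CCF4 loading, fluorescence read.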

[7] = molecular target: Retinoic acid receptor RXR-alpha (Homo sapiens) (UniProt P19793); experiment: qHTS assay for small molecule antagonists of retinoid X receptor alpha signaling (AID 588546; active means well fitted inhibition curve with a large enough effect in the signal ratio, with a control signal flat, not every such curve was filed as active; inconclusive means small, poorly fitted or top-dose-only effect, or effect the other way, or a change in a side signal; inactive means no such curve, though single readings can be large or run the other way; the % refers to the signal ratio; further: potency means the concentration at half of the fitted maximal effect); conditions: HEK293T RXRa-UAS-bla, beta-lactamase ratio, antagonist mode
Method in brief: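 Beta-lactamase reporter inhibition, read as CCF4 fluorescence ratio (ex 405, em 460/530 nm) after 2 h at RT. HEK293T UAS-bla cells, 2500/well, were stimulated with 9-cis-RA at 500 or 100 nM final alongside test compound for 18 h at 37 C.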

[8] = molecular target: Thyroid hormone receptor beta (Homo sapiens) (UniProt P10828); experiment: qHTS assay for small molecule antagonists of thyroid hormone receptor beta signaling (AID 588547; active means well fitted inhibition curve with a large enough effect in the signal ratio, with a control signal flat, not every such curve was filed as active; inconclusive means small, poorly fitted or top-dose-only effect, or effect the other way, or a change in a side signal; the % refers to the signal ratio;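 further: cells stimulated with 0.4 nM T3 agonist during compound exposure; on the % scale 0 is the no-effect control and ±100 the full control effect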); conditions: TR-UAS-bla HEK293, beta-lactamase ratio, antagonist mode, 18 h
Sequence of UniProt P10828 (P10828 whole entry, looked up): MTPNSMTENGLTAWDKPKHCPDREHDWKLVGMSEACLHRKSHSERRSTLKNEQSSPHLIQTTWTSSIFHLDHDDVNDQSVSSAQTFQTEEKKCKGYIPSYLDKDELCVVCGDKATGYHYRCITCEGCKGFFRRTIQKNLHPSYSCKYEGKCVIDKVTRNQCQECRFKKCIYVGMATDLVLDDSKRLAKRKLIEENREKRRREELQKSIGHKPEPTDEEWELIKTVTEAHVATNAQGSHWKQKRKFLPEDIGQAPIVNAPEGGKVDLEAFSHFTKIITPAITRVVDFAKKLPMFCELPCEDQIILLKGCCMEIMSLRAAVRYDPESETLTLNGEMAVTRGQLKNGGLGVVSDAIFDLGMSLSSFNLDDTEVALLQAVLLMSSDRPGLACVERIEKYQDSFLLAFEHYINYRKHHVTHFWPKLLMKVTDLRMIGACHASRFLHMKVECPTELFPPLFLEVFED
Method in brief: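 TR-UAS-bla GripTite HEK293 cells in 2% charcoal/dextran FBS medium; compounds 0.59 nM to 92 uM with T3 at 0.4nM final, 18 h at 37 C. Beta-lactamase read by CCF4 fluorescence (460/530 nm); Hill fits gave IC50 and efficacy.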

[9] = qHTS assay to identify small molecules that stimulate interleukin-8 (IL-8) secretion (AID 651758; active means well fitted activation curve with a large enough effect in the signal ratio; inconclusive means small, poorly fitted or top-dose-only effect, or effect the other way, or a change in a side signal; the % refers to the signal ratio; further: 0% is about no effect); conditions: HTRF ratio (665/615); activation: at 92.2 µM (top of the series)
Method in brief: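 THP-1 cells (2000/well) exposed to compound 16 h at 37 C; secreted IL-8 then detected by HTRF with cryptate- and XL665-labelled anti-IL-8 antibody pair after 1-3 h at room temperature.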

[10] = molecular target: Androgen receptor (Homo sapiens) (UniProt P10275); experiment: qHTS assay for small molecule agonists of androgen receptor signaling (AID 588515; active means well fitted curve in the direction sought with a large enough effect in the signal ratio, with a control signal flat; inconclusive means small, poorly fitted or top-dose-only effect, or effect the other way, or a change in a side signal; inactive means no such curve, though single readings can be large or run the other way; the % refers to the signal ratio; further: potency means the concentration at half of the fitted maximal effect); conditions: AR-UAS-bla HEK293, beta-lactamase ratio, agonist 16 h; activation: active compounds read high
Sequence of UniProt P10275 (P10275 whole entry, looked up): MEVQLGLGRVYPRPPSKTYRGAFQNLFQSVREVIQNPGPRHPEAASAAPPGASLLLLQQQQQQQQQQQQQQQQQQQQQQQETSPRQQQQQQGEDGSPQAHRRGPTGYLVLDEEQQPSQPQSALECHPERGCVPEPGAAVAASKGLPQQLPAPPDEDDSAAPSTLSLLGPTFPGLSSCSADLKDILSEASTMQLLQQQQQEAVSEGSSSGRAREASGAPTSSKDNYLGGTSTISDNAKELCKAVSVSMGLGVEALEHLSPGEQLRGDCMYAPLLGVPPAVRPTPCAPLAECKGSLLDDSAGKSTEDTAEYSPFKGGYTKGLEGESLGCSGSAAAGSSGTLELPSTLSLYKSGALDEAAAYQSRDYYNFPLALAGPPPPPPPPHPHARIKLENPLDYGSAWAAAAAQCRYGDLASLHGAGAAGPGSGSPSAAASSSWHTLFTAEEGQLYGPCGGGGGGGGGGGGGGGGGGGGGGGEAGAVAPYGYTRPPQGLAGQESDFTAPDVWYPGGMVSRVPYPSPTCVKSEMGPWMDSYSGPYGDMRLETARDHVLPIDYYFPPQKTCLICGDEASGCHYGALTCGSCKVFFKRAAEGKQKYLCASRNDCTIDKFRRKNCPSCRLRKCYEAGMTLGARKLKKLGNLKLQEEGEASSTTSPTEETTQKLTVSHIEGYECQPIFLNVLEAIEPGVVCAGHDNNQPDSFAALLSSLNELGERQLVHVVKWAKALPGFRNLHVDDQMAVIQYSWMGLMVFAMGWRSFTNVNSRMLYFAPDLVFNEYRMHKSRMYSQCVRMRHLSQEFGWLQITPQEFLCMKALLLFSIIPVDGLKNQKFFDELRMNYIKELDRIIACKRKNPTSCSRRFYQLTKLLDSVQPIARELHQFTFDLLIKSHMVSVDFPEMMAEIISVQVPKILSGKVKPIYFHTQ
Method in brief: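 EC50 and efficacy came from Hill fits of titrations (up to 92 uM) normalized to 30 nM R1881 as 100% and DMSO as 0%. Compound exposure was 16 h at 37 C on AR-UAS-bla HEK293 cells, with a 405/460/530 nm CCF4 fluorescence read.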

[11] = molecular target: Androgen receptor (Homo sapiens) (UniProt P10275); experiment: qHTS assay for small molecule antagonists of androgen receptor signaling (AID 588516; active means well fitted curve in the direction sought with a large enough effect in the signal ratio, with a control signal flat, not every such curve was filed as active; inconclusive means small, poorly fitted or top-dose-only effect, or effect the other way, or a change in a side signal; inactive means no such curve, though single readings can be large or run the other way; the % refers to the signal ratio; further: on the % scale 0 is the no-effect control and ±100 the full control effect); conditions: AR-UAS-bla HEK293, beta-lactamase ratio, antagonist mode, 16 h; activity change, negative = inhibition: at 76.8 µM (top of the series)
Method in brief: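 Antagonist mode: inhibition of R1881-stimulated (10 nM final) bla reporter in GeneBLAzer AR HEK 293 cells, 16 h at 37C, compounds titrated. IC50 and efficacy from Hill-equation fits of 405/460–530 nm FRET ratios.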

[12] = molecular target: Vitamin D3 receptor (Homo sapiens) (UniProt P11473); experiment: qHTS assay for small molecule antagonists of vitamin D receptor signaling (AID 588541); conditions: HEK293T VDR-UAS-bla, beta-lactamase ratio, antagonist mode; activity change, negative = inhibition: at 76.7 µM (top of the series); further: potency means the concentration at half of the fitted maximal effect
[13] = molecular target: Thyroid hormone receptor beta (Homo sapiens) (UniProt P10828); experiment: qHTS assay for small molecule agonists of thyroid hormone receptor beta signaling (AID 588545); conditions: TR-UAS-bla GripTite HEK 293, beta-lactamase ratio, agonist mode, 18 h; activation: at 76.7 µM, percent of T3 response, DMSO as zero; further: potency means the concentration at half of the fitted maximal effect
Method in brief: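 Efficacy and EC50 values derive from Hill fits of qHTS titration data, normalized to 10 nM T3 and DMSO-only wells. HEK 293 reporter cells were stimulated for 18 hrs at 37 C, with beta-lactamase activity measured by CCF4 fluorescence.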

[14] = qHTS assay for small molecule agonists of the antioxidant response element (ARE) signaling pathway (AID 651741; active means well fitted activation curve with a large enough effect in the signal ratio; inconclusive means small, poorly fitted or top-dose-only effect, or effect the other way, or a change in a side signal; the % refers to the signal ratio; further: potency means the concentration at half of the fitted maximal effect; on activation: % of control where 0% means no effect); conditions: HepG2 ARE-bla reporter, beta-lactamase FRET ratio, 16 h; activation: at 96 µM (top of the series) unless noted
Method in brief: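 HepG2 ARE-bla cells plated at 2,000 cells/well and incubated 5 h at 37 C/5% CO2 received 23 nL compound in DMSO. After 16 h at 37 C, LiveBLAzer B/G FRET substrate was applied for 2 h at room temperature and fluorescence read.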

[15] = molecular target: Glucocorticoid receptor (Homo sapiens) (UniProt P04150); experiment: qHTS assay for small molecule agonists of glucocorticoid receptor signaling (AID 588532; active means well fitted curve in the direction sought with a large enough effect in the signal ratio, with a control signal flat; inconclusive means small, poorly fitted or top-dose-only effect, or a change in a side signal; inactive means no such curve, though single readings can be large or run the other way; the % refers to the signal ratio;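 further: 100% = dexamethasone at 0.1 µM and 0% = DMSO only wells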); conditions: HeLa MMTV-bla, beta-lactamase ratio, agonist, 18 h; activation: active compounds read high, percent of dexamethasone control, DMSO zero
Method in brief: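 HeLa GRE-bla reporter cells; 18 h compound exposure at 37 C; 2 h CCF4 loading at room temperature; fluorescence at 460 and 530 nm; EC50 by Hill equation.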

[16] = molecular target: Glucocorticoid receptor (Homo sapiens) (UniProt P04150); experiment: qHTS assay for small molecule antagonists of glucocorticoid receptor signaling (AID 588533; active means well fitted inhibition curve with a large enough effect in the signal ratio, with a control signal flat, not every such curve was filed as active; inconclusive means small, poorly fitted or top-dose-only effect, or effect the other way, or a change in a side signal; the % refers to the signal ratio;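 further: cells stimulated with 2 nM dexamethasone as agonist; on the % scale 0 is the no-effect control and ±100 the full control effect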); conditions: HeLa MMTV-bla, GRE beta-lactamase ratio, antagonist mode, 18 h; activity change, negative = inhibition: at 76.8 µM (top of the series)
[17] = molecular target: Peroxisome proliferator-activated receptor gamma (Homo sapiens) (UniProt P37231); experiment: qHTS assay for small molecule agonists of peroxisome proliferator-activated receptor gamma signaling (AID 588536; active means well fitted curve in the direction sought with a large enough effect in the signal ratio, with a control signal flat, not every such curve was filed as active; inconclusive means small, poorly fitted or top-dose-only effect, or effect the other way, or a change in a side signal; inactive means no such curve, though single readings can be large or run the other way; the % refers to the signal ratio;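 further: 0% = DMSO basal wells and 100% = rosiglitazone at 2 µM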); conditions: HEK293 PPARg-UAS-bla, beta-lactamase ratio, 16 h; activation: at 76.7 µM (top of the series), percent of rosiglitazone response, DMSO as zero
Method in brief: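 Test agents, titrated, stimulated HEK293 UAS-bla cells overnight (16 h, 37 C). Substrate CCF4 was then added for two hours at room temperature before fluorescence reading.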

[18] = qHTS assay for small molecule agonists of the antioxidant response element (ARE) signaling pathway measured by Nrf2-dependant transcriptional activity (AID 720636; active means well fitted curve in the direction sought with a large enough effect in the repeat runs; inconclusive means weak or mixed curves; inactive means no such curve, though single readings can be large; an effect the other way counts as inactive or inconclusive; further: potency means the concentration at half of the fitted maximal effect;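 on activation: HepG2 cells with an ARE-driven luciferase reporter; % of control where 0% means no effect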)
Method in brief: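 Attachment 6 hr at 37 C, then compound versus DMSO vehicle for 16 hr in ARE-luc HepG2 cells (1% dialyzed FBS); luminescence recorded 30 min after ONE-Glo addition at room temperature.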

[19] = Cell Viability - LYMP2-004 (AID 966; active means well fitted curve in the direction sought with a large enough effect; inconclusive means small, poorly fitted or top-dose-only effect, or another doubt; inactive means no such curve, though single readings can be large; an effect the other way counts as inactive or inconclusive; further: potency means the concentration at half of the fitted maximal effect; nearly all actives have a fitted effect of over 65% in size); conditions: LYMP2-004 lymphoblastoid cell viability, qHTS; activity change, negative = cytotoxicity: at 92.2 µM (top of the series)
Method in brief: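 Acute toxicity is scored as a concentration-dependent drop in intracellular ATP, quantified by luciferase luminescence, in human lymphoblastoid cells exposed to compound for 24 hr. AC50 derives from Hill-equation modelling.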

[20] = Cell Viability - LYMP1-002 - Assay at 24 hr (AID 993; active means well fitted curve in the direction sought with a large enough effect; inconclusive means small, poorly fitted or top-dose-only effect, or another doubt; inactive means no such curve, though single readings can be large; an effect the other way counts as inactive or inconclusive; further: on the % scale 0 is the no-effect control and ±100 the full control effect); conditions: LYMP1-002 lymphoblastoid cells viability; at 92.2 µM (top of the series)
Method in brief: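 qHTS, LYMP1-002 lymphoblastoid, 24 h cpd, 37 C, CellTiter-Glo ATP luminescence; AC50 via Hill eq.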

[21] = molecular target: Vitamin D3 receptor (Homo sapiens) (UniProt P11473); experiment: qHTS assay for small molecule agonists of vitamin D receptor signaling (AID 588543); conditions: HEK293T VDR-UAS-bla, beta-lactamase ratio, 16 h; activation: at 76.8 µM (top of the series); further: potency means the concentration at half of the fitted maximal effect
Method in brief: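 qHTS in agonist mode: compound titrations stimulate a VDR-driven β-lactamase reporter in HEK293T cells over 16 h at 37 °C. Response normalized to 50 nM 1α,25-dihydroxyvitamin D3 = 100%, DMSO = 0%; Hill fitting gives EC50 and maximal response.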
Tags describe the fitted curve by direction and shape or compound fluorescence and quenching.

Cc1ccc(Cl)cc1Cl
inconclusive: activation [1] 68.4% | activation [2] 62.9%

Cc1ccc(N)c([N+](=O)[O-])c1
inconclusive: activation [1] 57.2% | activity change % (negative = inhibition) [8] 6.42% | activation [9] -18.6%
inactive: Potency [3] | Potency [4] | Potency [5] | Potency [6] | max response [7] -0.0872% and -10.2%

CN(C)c1ccc(C(c2ccccc2)c2ccc(N(C)C)cc2)cc1
inconclusive: activation [10] -10.5% | activity change, negative = inhibition [11] -65.9% | Potency [12] 50.1 µM [inhibitor, single point] | Potency [2] 39.8 µM [side channel, rising, partial curve, poor fit] | Potency [13] 39.8 µM [side channel, falling, partial curve, poor fit] | Potency [7] 44.7 µM [inhibitor, partial curve, poor fit] | Potency [14] 27.3 µM [activator, partial curve]

COC(=O)c1c(Cl)nn(C)c1S(=O)(=O)NC(=O)Nc1nc(OC)cc(OC)n1
inconclusive: Potency [14] 77 µM [activator, single point]
inactive: activation [10] 5.65% | Potency [11] | activation [15] -2.96% | Potency [6]

C=CCCCCCCCCC=O
inconclusive: activation [14] 6.83%
inactive: Potency [1]

CC(C)c1ccc2cc(C(C)C)ccc2c1
inconclusive: activity change, negative = inhibition [16] 4.4% | activation [17] 13.3% | activation [14] 9.02% | Potency [18] 19.3 µM [activator, full curve, poor fit]
inactive: activation [10] -3.98% | Potency [11] | Potency [6]

O=C(O)c1ccc(Cl)c(Cl)c1
inactive: activity change, negative = cytotoxicity [20] -2.78% | Potency [14] | Potency [9]
inconclusive: Potency [19] 25.1 µM [rising, single point] | activation [10] -23.4% | activity change, negative = inhibition [11] -99.2% | Potency [21] 44.7 µM [side channel, rising, single point]

C=C(C)C(=O)OCCOC(=O)C(=C)C
inconclusive: Potency [10] 0.0079 µM [side channel, falling, full curve, poor fit]
inactive: Potency [11] | activation [15] -0.861% | Potency [14] | Potency [18]
